# Data from a collection of fitness landscapes (doi:10.1016/j.celrep.2020.107928).
# The full ranking holds about 81,000 sequences; the median of “one-hybrid fitness for binding parS DNA” is about -0.17, and the highest 2% start at about 0.51. The list shows a part of the results.
# B1: Caulobacter ParB omega fusion; a variant is named by its letters at X, in order, B8GW30 (parent)
# chain: MESVVVGEPGMSEGRRGLGRGLSALLGEVDAAPAQAPGEQLGGSREAPIEILQRNPDQPRRTFREEDLEDLSNSIREKGVLQPILVRPSPDTAGEYQIVAGERAWRAAQRAGLKTVPIMVRELDDLAVLEIGIIENVQRADLNVLEEALSYKVLMEKFERTQENIAQTIGKSXSHVANXMRLLXLPDEVQSYLVSGELTAXHARAIAAAADPVALAKQIIEGGLSVRETEALARKAPNLSAGKSKGGRPPRVKDTDTQALESDLSSVLGLDVSIDHRGSTGTLTITYATLEQLDDLCNRLTRGI
# Variants of: B1
# Assay: one-hybrid fitness for binding parS DNA (scaled: cognate 1, non-cognate 0); higher = stronger binding
# Settings: with parS DNA site
# In short: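 Selection: bacterial one-hybrid in E. coli USO, HIS3 reporter with the site 19 bp from the promoter, 48 hours at 37°C on M9-minus-histidine plus 0.1 mM IPTG and 5 mM 3-AT. Libraries were Caulobacter ParB with four randomised specificity codons, sequenced on Illumina before and after selection. Fitness is the rescaled log change in variant-to-wild-type read ratio, anchored to the cognate and non-cognate sites.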
row,Variant,one-hybrid fitness for binding parS DNA
1,QFRI,≤ 0.2
2,RRRG,0.706
3,VMYY,≤ 0.2
4,SLNE,≤ 0.2
5,HIWV,≤ 0.2
6,IECR,≤ 0.2
7,PCIT,≤ 0.2
8,FSRF,≤ 0.2
9,QEHC,≤ 0.2
10,NHKI,≤ 0.2
11,VNYE,≤ 0.2
12,YVRM,≤ 0.2
13,DKHS,≤ 0.2
14,AIYN,≤ 0.2
15,LHPF,≤ 0.2
16,HPLC,≤ 0.2
17,DCYT,≤ 0.2
18,QCYC,≤ 0.2
19,RNPA,≤ 0.2
20,ERKK,≤ 0.2
21,LPQN,≤ 0.2
22,ENAW,≤ 0.2
23,CMHS,≤ 0.2
24,QPWG,≤ 0.2
25,VPML,≤ 0.2

row,Variant,one-hybrid fitness for binding parS DNA
1,DDQP,≤ 0.2
2,SNLG,≤ 0.2
3,TPMA,≤ 0.2
4,ITAF,≤ 0.2
5,IEPC,≤ 0.2
6,FIPG,≤ 0.2
7,CGSY,≤ 0.2
8,GSRI,≤ 0.2
9,PPAG,≤ 0.2
10,PNTD,≤ 0.2
11,YPHM,≤ 0.2
12,SISM,≤ 0.2
13,NHGG,≤ 0.2
14,LNGS,≤ 0.2
15,WLHV,≤ 0.2
16,YHYR,≤ 0.2
17,LRVN,≤ 0.2
18,VTIG,≤ 0.2
19,QIPW,≤ 0.2
20,DPNK,≤ 0.2
21,QAVD,≤ 0.2
22,KRAE,≤ 0.2
23,NLDW,≤ 0.2
24,NWHF,≤ 0.2
25,WVAR,≤ 0.2

row,Variant,one-hybrid fitness for binding parS DNA
1,QCHL,≤ 0.2
2,PWVK,≤ 0.2
3,PQYL,≤ 0.2
4,QPFG,≤ 0.2
5,LWNL,≤ 0.2
6,LEHG,≤ 0.2
7,IICS,≤ 0.2
8,QSNT,≤ 0.2
9,CPYD,≤ 0.2
10,RTYM,0.341
11,QPMF,≤ 0.2
12,RYIC,0.757
13,ELEI,≤ 0.2
14,QCGM,≤ 0.2
15,IRQA,≤ 0.2
16,QNGA,≤ 0.2
17,PAKK,≤ 0.2
18,EKLG,≤ 0.2
19,WTEC,≤ 0.2
20,TEDK,≤ 0.2
21,NRLS,≤ 0.2
22,AGTY,≤ 0.2
23,HGVT,≤ 0.2
24,ICSC,≤ 0.2
25,AQQS,≤ 0.2

row,Variant,one-hybrid fitness for binding parS DNA
1,VRPA,≤ 0.2
2,VLVW,≤ 0.2
3,PNFY,≤ 0.2
4,HFRL,≤ 0.2
5,SVVI,≤ 0.2
6,VFPV,≤ 0.2
7,RNKI,≤ 0.2
8,NMDR,≤ 0.2
9,LRSC,≤ 0.2
10,GPTV,≤ 0.2
11,NPTR,≤ 0.2
12,YKQG,≤ 0.2
13,EMRM,≤ 0.2
14,ANSE,≤ 0.2
15,TVNF,≤ 0.2
16,CKDC,≤ 0.2
17,IHVK,≤ 0.2
18,KASG,≤ 0.2
19,FLHS,≤ 0.2
20,TKHD,≤ 0.2
21,PLLN,≤ 0.2
22,RWLL,≤ 0.2
23,APCT,≤ 0.2
24,ILTK,≤ 0.2
25,ADMR,≤ 0.2

row,Variant,one-hybrid fitness for binding parS DNA
1,MCRN,≤ 0.2
2,YLPL,≤ 0.2
3,EALS,≤ 0.2
4,LSTG,≤ 0.2
5,HDTC,≤ 0.2
6,DRLT,≤ 0.2
7,RKAP,≤ 0.2
8,KEQC,≤ 0.2
9,GYWR,≤ 0.2
10,AVES,≤ 0.2
11,AINS,≤ 0.2
12,CGRK,≤ 0.2
13,NLLS,≤ 0.2
14,ENHY,≤ 0.2
15,LVCG,≤ 0.2
16,ATNW,≤ 0.2
17,NNNI,≤ 0.2
18,TVYY,≤ 0.2
19,KVFL,≤ 0.2
20,LLYN,≤ 0.2
21,WDHW,≤ 0.2
22,AQIS,≤ 0.2
23,LVKS,≤ 0.2
24,YKPG,≤ 0.2
25,SYIW,≤ 0.2

row,Variant,one-hybrid fitness for binding parS DNA
1,QQER,≤ 0.2
2,YRCG,≤ 0.2
3,APYG,≤ 0.2
4,SAAL,≤ 0.2
5,RIKY,0.747
6,AQCP,≤ 0.2
7,LPAN,≤ 0.2
8,TKWV,≤ 0.2
9,HRDV,≤ 0.2
10,RHRW,≤ 0.2
11,VSVI,≤ 0.2
12,CNRA,≤ 0.2
13,IRST,≤ 0.2
14,QFPV,≤ 0.2
15,WTSM,≤ 0.2
16,CFVC,≤ 0.2
17,HWRF,≤ 0.2
18,VSHI,≤ 0.2
19,PEFR,≤ 0.2
20,QWYV,≤ 0.2
21,APRR,≤ 0.2
22,TQTN,≤ 0.2
23,VRWS,≤ 0.2
24,WTFR,≤ 0.2
25,ERIR,≤ 0.2

row,Variant,one-hybrid fitness for binding parS DNA
1,AQTR,≤ 0.2
2,FSCC,≤ 0.2
3,KQTH,≤ 0.2
4,RYNT,0.819
5,VTGI,≤ 0.2
6,DCLC,≤ 0.2
7,DYPV,≤ 0.2
8,VRKK,≤ 0.2
9,MKPK,≤ 0.2
10,VYKT,≤ 0.2
11,RDMT,≤ 0.2
12,RSLK,≤ 0.2
13,GTKG,≤ 0.2
14,MAWR,≤ 0.2
15,RPFM,≤ 0.2
16,ILMW,≤ 0.2
17,YILT,≤ 0.2
18,DSSR,≤ 0.2
19,AYTD,≤ 0.2
20,RVRL,≤ 0.2
21,AQEW,≤ 0.2
22,NGNH,≤ 0.2
23,REHM,≤ 0.2
24,ASVG,≤ 0.2
25,PLLK,≤ 0.2

row,Variant,one-hybrid fitness for binding parS DNA
1,SRKF,≤ 0.2
2,DMSL,≤ 0.2
3,ANSI,≤ 0.2
4,PLMC,≤ 0.2
5,NPIY,≤ 0.2
6,SGKE,≤ 0.2
7,WSHS,≤ 0.2
8,TSTG,≤ 0.2
9,DSMC,≤ 0.2
10,RCFN,0.43
11,VYTS,≤ 0.2
12,SNTV,≤ 0.2
13,TNVY,0.235
14,MRTT,≤ 0.2
15,PRVE,≤ 0.2
16,AKVE,≤ 0.2
17,QRYS,≤ 0.2
18,SWKK,≤ 0.2
19,STCE,≤ 0.2
20,ASNR,≤ 0.2
